Out of some 110,000 compounds screened, about 230 (0.21%) showed an effect of 50% or more. This is one part of the list.
biological target: DPAP1 (Plasmodium falciparum, UniProt Q8IIJ9); test: primary screen, percent inhibition; read by cleavage of a fluorogenic dipeptide substrate; higher = more effect of the substance; design: species or system P. falciparum D10 trophozoite lysates; single well
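Also: 30 min substrate incubation versus DMSO and 10 µM JCP410 controls.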

DPAP1, sequence (Q8IIJ9 whole entry, looked up): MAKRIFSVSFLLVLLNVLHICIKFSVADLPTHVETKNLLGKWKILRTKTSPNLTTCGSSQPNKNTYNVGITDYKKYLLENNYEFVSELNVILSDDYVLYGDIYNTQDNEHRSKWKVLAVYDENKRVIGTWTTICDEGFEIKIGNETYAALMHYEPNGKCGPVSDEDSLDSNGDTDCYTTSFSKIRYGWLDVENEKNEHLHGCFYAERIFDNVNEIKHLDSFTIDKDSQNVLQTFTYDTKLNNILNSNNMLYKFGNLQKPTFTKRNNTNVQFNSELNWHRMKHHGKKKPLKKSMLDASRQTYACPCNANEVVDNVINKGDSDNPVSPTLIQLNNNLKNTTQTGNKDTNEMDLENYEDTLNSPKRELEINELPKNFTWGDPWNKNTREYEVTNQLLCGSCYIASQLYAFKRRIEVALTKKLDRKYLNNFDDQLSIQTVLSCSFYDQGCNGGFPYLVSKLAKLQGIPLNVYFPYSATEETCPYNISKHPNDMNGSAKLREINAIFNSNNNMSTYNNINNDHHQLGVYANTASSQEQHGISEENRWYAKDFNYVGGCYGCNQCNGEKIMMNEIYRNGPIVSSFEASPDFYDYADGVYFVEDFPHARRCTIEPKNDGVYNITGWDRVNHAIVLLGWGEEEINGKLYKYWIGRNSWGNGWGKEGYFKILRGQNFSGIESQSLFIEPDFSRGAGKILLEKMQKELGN

Compared with `O=C(Nc1cnn(Cc2ccc(F)cc2)c1)c1c(Cl)cccc1Cl`, `CCc1ccc(CNCc2c(C(=O)O)n(Cc3ccc(F)cc3)c3cc(OC)ccc23)cc1` is higher in “% Inhibition @ 10 uM” value: -1.88% for the first, 1.53% for the second.

First: COc1cc(Br)c(C2CC(=O)NC(C)=C2C(=O)OCC2CCCCC2)cc1OC (stereo not shown)
Second: COC(=O)c1cc(OC)c(OC)cc1NC(=O)C1CC1
The “% Inhibition @ 10 uM” value of the first is higher: -1% for the first, -5.46% for the second.

First: CCCOC(=O)c1ccc(Oc2c(C(F)(F)F)oc3cc(O)ccc3c2=O)cc1
Second: COc1ccc(C(=O)Nc2ccccc2F)cc1
The “% Inhibition @ 10 uM” value of the first is lower: -2.91% for the first, 6.6% for the second.

First: Cc1ccc(N(CC(=O)N[C@@H]2C[C@H]3CC[C@@H]2C3)S(=O)(=O)c2ccc(F)cc2)cc1
Second: COc1ccc(N(CC(=O)Nc2ccc(Br)cc2)S(C)(=O)=O)cc1Cl
The “% Inhibition @ 10 uM” value of the first is higher: 0.992% for the first, -2.32% for the second.

Compared with `COCCNC(=O)CS(=O)Cc1nc(-c2ccc(OC)cc2)oc1C` (stereo not shown), `COc1ccc(OCC(O)Cn2c(Br)nc3c2c(=O)[nH]c(=O)n3C)cc1` (stereo not shown) is lower in “% Inhibition @ 10 uM” value: -1.05% for the first, -1.37% for the second.

First: Cc1onc(-c2ccccc2)c1C(=O)NC(CC(=O)O)c1cccc(Cl)c1 (stereo not shown)
Second: Cc1cccc(C[C@H](NC(=O)OCc2ccccc2)C(=O)NCC#N)c1
The “% Inhibition @ 10 uM” value of the first is higher: -4.49% for the first, -6.98% for the second.

First: COc1ccc(C(=O)n2nc3c4c(cccc42)C(=O)c2ccccc2-3)cc1
Second: COc1ccc(C(=O)N2CCN(C(=O)c3ccc(OC)cc3)CC2)cc1
The “% Inhibition @ 10 uM” value of the first is lower: -2.75% for the first, -1.61% for the second.

Compared with `CCOc1ccccc1CNC(=O)CCC(=O)N1Cc2ccccc2Oc2ncccc21`, `O=c1c2oc3ccccc3c2ncn1C/C=C/c1ccccc1` is lower in “% Inhibition @ 10 uM” value: -1.34% for the first, -1.48% for the second.

First: O=C(CCn1c(=O)c2cccn2c2cccnc21)N1CCC2(CC1)OCCO2
Second: CCOc1ccc(S(=O)(=O)N2CCN(C)CC2)c2ccccc12
The “% Inhibition @ 10 uM” value of the first is higher: 3.88% for the first, -1.95% for the second.

First: CC(C)CNC(=O)c1ccc(COc2cc(Cl)ccc2Cl)o1
Second: CCCCNC(=O)NS(=O)(=O)c1cnccc1Sc1ccc(Cl)cc1
The “% Inhibition @ 10 uM” value of the first is higher: 0.413% for the first, -2.74% for the second.

First: CCOC(=O)c1c(C)n(CC(O)CN2CCOCC2)c2cc(Br)c(OC)cc12 (stereo not shown)
Second: Cn1nc(Oc2nc(NC(C)(C)C)nc(N3CCOCC3)n2)ccc1=O
The “% Inhibition @ 10 uM” value of the first is higher: 2.99% for the first, 2.46% for the second.

Compared with `O=C(c1ccco1)N1CCN(c2ccc([N+](=O)[O-])cc2)CC1`, `COc1ccc(-c2cc(C(F)(F)F)n3nc(C(=O)N4CCN(C(=O)c5ccco5)CC4)cc3n2)cc1` is lower in “% Inhibition @ 10 uM” value: -1.93% for the first, -2.23% for the second.

Going from `C=CCNC(=S)NC1(C)CCS(=O)(=O)C1` (stereo not shown) to `CC1=C(C(=O)Nc2cccc(C)n2)C(c2ccc3c(c2)OCO3)C2=C(O)CC(C)(C)CC2=N1` (stereo not shown), the “% Inhibition @ 10 uM” value rises from -4.51% to 0.674%.

Compared with `COc1ccc(-n2c(C)cc(/C=C3\C(=N)N4N=C(N5CCCC5)SC4=NC3=O)c2C)cc1Cl`, `CCCN1C/C(=C/c2cccc(OC)c2OC)C(=O)/C(=C/c2cccc(OC)c2OC)C1` is higher in “% Inhibition @ 10 uM” value: 0.0579% for the first, 8.55% for the second.

Going from `CCOc1cc(Br)c(C=C2C(=O)NC(=O)NC2=O)cc1OC` to `CCOc1ccc(CCNS(=O)(=O)c2cc(Cl)c(C)cc2OC)cc1OCC`, the “% Inhibition @ 10 uM” value rises from -2.39% to 0.883%.

Going from `Cc1ccc(C2OCC3(CO2)SC(=O)NC3=O)cc1` (stereo not shown) to `Cc1ccc(/C=N/N=C(\N)c2nonc2N)cc1`, the “% Inhibition @ 10 uM” value rises from 2.08% to 3.34%.

First: O=C(O)c1cccnc1C(=O)c1ccccc1
Second: CCCSc1nnc(NC(=O)c2cccc3ccccc23)s1
The “% Inhibition @ 10 uM” value of the first is lower: -5.81% for the first, -0.142% for the second.

Going from `Cc1cc(C(F)(F)F)c2c(N)c(C(=O)Nc3cccc(C(F)(F)F)c3)sc2n1` to `FC(F)(F)c1ccc(N2CCOCC2)c(NCc2cccs2)c1`, the “% Inhibition @ 10 uM” value rises from -4.39% to 3.66%.

Compared with `Cc1nc2nc(CSc3nc4ccccc4s3)cc(O)n2n1`, `Cc1nnc(NC(=O)CSc2n[nH]c(-c3ccccc3)n2)s1` is higher in “% Inhibition @ 10 uM” value: 0.221% for the first, 1.76% for the second.

First: C(=C\c1cc(/C=C/c2ccccc2)ncn1)/c1ccccc1
Second: Cc1cccn2c(=O)c(/C=C(\C#N)S(=O)(=O)c3ccccc3)c(Oc3ccccc3Cl)nc12
The “% Inhibition @ 10 uM” value of the first is lower: -5.51% for the first, -3.23% for the second.

Compared with `O=C(Cn1ncc2ccccc21)NC1CCCCCC1`, `Cn1c2ccccc2c2nnc(SCCCn3c(O)nc4ccccc43)nc21` is higher in “% Inhibition @ 10 uM” value: -3.47% for the first, 3.79% for the second.

Compared with `Cc1ccc(NC(=O)/C=C/c2cccc([N+](=O)[O-])c2)cc1C`, `CCOc1ccc(/C=C/C(O)=C2/C(=O)N(C)C3(C)CC2c2ccccc2O3)cc1OC` (stereo not shown) is lower in “% Inhibition @ 10 uM” value: 4.6% for the first, 2.35% for the second.

Compared with `CCc1ccc(C2=CC(c3cc(Br)ccc3OC(F)F)n3nnnc3N2)cc1` (stereo not shown), `Cc1cc(-c2ccc(C)c(S(=O)(=O)NCc3ccco3)c2)on1` is higher in “% Inhibition @ 10 uM” value: 1.66% for the first, 3.37% for the second.

First: O=C1OC(c2cncc(Br)c2)=N/C1=C\c1ccc2c(c1)OCO2
Second: COc1cc(CNCc2cc(OC)ccc2OC)cc(OC)c1
The “% Inhibition @ 10 uM” value of the first is higher: -0.0894% for the first, -2.22% for the second.

In the case of `O=C1CCC(=O)N1C1=NC2=C(CCCC2)C2(CCCCC2)S1`, the “% Inhibition @ 10 uM” value is reported as 0.324%.
